Measured values from patent publication US20100190717A1, “USE OF MELANIN CONCENTRATING HORMONE AND MET-ENKEPHALIN AS THERAPEUTIC AGENTS” (priority 2007, published 2010).
Ends that are not written are not given here.

System: RAW 264.7 (Mouse leukaemic monocyte macrophage cell line) cells
Experiment: Phagocytosis assay (Fluorescein-labeled Escherichia coli, flow cytometry)
Type: cell-based
Settings: 10 micrograms per ml; RAW 264.7, Fluorescein-labeled E. coli

Row | Substance | increase on the phagocytic activity of murine macrophages
1 | Asp-Phe-Asp-Met-Leu-Arg-Cys-Met-Leu-Gly-Arg-Val-Tyr-Arg-Pro-Cys-Trp-Gln-Val-OH (DFDMLRCMLGRVYRPCWQV-OH; ends and bridges not checked) [peptide 1, melanin concentrating hormone (MCH), commercially available peptide] | 54.3%
2 | Tyr-Gly-Gly-Phe-Met-OH [peptide 2] | 51.4%
